Results from publication PMC7595112, “Ketohexokinase-A acts as a nuclear protein kinase that mediates fructose-induced metastasis in breast cancer” (Nature Communications, 2020).
Changes are numbered by the printed parent chain. Numbers in names are those of the source. No constants are given. Whether binding was seen depends on the method and setting. For some assays here: Binding seen in cells or lysates may run through a third protein. Some entries that bind do so weakly or less than the wild type. For some assays here: Tags and fused reporters may be left off the sequences shown.

Protein sequences, listed by entry. Tags and fused reporters are not part of them.
UniProt Q14974: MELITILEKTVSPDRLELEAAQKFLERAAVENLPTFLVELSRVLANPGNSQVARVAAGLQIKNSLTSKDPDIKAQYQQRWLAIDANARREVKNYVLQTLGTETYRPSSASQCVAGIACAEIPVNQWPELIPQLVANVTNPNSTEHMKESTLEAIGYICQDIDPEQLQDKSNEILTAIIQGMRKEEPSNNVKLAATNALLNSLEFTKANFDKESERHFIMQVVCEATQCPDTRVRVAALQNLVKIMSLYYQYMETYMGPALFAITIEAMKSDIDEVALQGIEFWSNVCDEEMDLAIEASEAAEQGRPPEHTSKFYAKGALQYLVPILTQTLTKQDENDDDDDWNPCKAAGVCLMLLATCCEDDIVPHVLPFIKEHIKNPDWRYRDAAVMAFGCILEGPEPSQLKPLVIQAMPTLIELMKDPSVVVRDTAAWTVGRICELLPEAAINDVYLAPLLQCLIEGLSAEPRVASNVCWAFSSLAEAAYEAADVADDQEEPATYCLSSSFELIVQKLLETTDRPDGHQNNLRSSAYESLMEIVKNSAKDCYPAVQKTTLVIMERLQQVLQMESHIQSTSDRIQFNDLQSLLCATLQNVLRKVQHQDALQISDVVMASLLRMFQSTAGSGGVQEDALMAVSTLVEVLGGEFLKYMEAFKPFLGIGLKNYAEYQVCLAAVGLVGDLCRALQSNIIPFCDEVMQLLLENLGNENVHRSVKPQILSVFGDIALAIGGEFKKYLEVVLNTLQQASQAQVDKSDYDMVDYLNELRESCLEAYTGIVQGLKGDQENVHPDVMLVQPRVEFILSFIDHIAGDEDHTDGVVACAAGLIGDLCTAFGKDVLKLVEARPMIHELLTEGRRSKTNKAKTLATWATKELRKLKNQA
UniProt O95863: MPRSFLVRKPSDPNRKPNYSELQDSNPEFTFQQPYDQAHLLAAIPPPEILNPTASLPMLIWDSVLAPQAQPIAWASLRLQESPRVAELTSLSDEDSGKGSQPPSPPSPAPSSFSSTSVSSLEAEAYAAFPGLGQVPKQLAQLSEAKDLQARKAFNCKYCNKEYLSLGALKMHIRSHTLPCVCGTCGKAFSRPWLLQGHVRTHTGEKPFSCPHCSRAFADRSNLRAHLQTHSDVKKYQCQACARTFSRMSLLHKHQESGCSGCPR

Experiments:
Myc-KHK-A_L83A (human) = molecular target: T1, Myc-KHK-A_L83A (human) (UniProt P50053); assay: co-IP; MDA-MB-231 transfected with Myc-KHK-A or Myc-KHK-A_L83A (with LRRC59 siRNA in Fig. 4f), 5 mM fructose for 8 h; anti-Myc immunoprecipitation, blots for LRRC59 and KPNB1
T1 sequence: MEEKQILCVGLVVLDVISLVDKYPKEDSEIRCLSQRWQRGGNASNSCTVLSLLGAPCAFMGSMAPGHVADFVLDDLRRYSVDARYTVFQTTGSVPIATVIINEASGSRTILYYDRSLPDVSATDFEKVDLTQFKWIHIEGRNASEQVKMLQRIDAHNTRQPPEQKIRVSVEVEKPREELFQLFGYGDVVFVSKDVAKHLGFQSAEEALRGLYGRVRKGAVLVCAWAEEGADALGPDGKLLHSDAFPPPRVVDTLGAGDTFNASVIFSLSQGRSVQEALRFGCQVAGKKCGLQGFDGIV

[1] = molecular target: T2, S25-phosphorylated YWHAH, endogenous (fructose-treated MDA-MB-231 cells) (human (endogenous in MDA-MB-231)) (UniProt Q04917); assay: co-IP; MDA-MB-231, 5 mM fructose for 24 h, KHK-A level varied; binding analysis between YWHAH and endogenous SLUG, SNAIL or TWIST
T2 sequence (chain, phosphoserine at 25): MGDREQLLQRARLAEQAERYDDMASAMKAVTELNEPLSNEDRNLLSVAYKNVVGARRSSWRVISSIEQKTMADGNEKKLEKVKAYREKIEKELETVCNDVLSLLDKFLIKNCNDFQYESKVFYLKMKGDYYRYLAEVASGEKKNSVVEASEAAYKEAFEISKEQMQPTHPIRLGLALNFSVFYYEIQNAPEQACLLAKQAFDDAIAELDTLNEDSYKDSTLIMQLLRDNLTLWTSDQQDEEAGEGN

[2] = molecular target: T3, tyrosine 3-monooxygenase/tryptophan 5-monooxygenase activation protein Eta (YWHAH), endogenous (human (endogenous in MCF-7 and MDA-MB-231)) (UniProt Q04917); assay: as above
T3 sequence: T2 sequence (chain, phosphoserine at 25)

[3] = molecular target: T4, His-KHK-A expressed in breast-cancer cells (human) (UniProt P50053); assay: co-IP + pull-down; MDA-MB-231 co-transfected with His-KHK-A and FLAG-YWHAH WT or D21A; co-precipitation cross-checked with anti-FLAG and nickel-NTA affinity gels
T4 sequence: T1 sequence with A83L

[4] = molecular target: T5, S25-phosphorylated wild-type YWHAH expressed in fructose-treated MDA-MB-231 cells (human) (UniProt Q04917); assay: co-IP; MDA-MB-231 expressing YWHAH or YWHAH_S25A, 5 mM fructose for 24 h; co-precipitation of SLUG with YWHAH
T5 sequence (chain, phosphoserine at 25): T2 sequence (chain, phosphoserine at 25)

[5] = molecular target: T6, YWHAH_S25A expressed in MDA-MB-231 cells (human) (UniProt Q04917); assay: as above
T6 sequence: T2 sequence (chain, phosphoserine at 25) with S25A

[6] = molecular target: T7, ketohexokinase-C (KHK-C), endogenous (human (endogenous in MCF-7 or MDA-MB-231)) (UniProt P50053); assay: co-IP; cells incubated with 5 mM fructose for 8 h; lysates immunoprecipitated with IgG, anti-KHK-A or anti-KHK-C, immunoblotted with anti-LRRC59 or anti-YWHAH
T7 sequence: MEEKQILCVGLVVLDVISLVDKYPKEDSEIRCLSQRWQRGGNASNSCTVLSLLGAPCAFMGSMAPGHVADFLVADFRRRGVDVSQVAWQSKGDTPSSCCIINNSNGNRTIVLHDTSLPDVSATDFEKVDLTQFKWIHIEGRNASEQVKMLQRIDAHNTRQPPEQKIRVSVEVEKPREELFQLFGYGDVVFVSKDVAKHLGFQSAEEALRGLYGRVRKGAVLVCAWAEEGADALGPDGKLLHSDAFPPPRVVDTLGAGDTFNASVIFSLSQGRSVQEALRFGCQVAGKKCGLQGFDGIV

[7] = molecular target: T8, ketohexokinase-A (KHK-A), endogenous (human (endogenous in MCF-7 or MDA-MB-231)) (UniProt P50053); assay: as above
T8 sequence: T1 sequence with A83L

[8] = molecular target: T9, His(6)-KHK-A purified from HEK293T cells (human) (UniProt P50053); assay: pull-down; purified FLAG-YWHAH WT or D21A and KHK-A co-incubated for 1 h; KHK-A pulled down with nickel-NTA, bound YWHAH immunoblotted; both purified
T9 sequence: T1 sequence with A83L

## KPNB1, endogenous (from UniProt Q14974 1-876)
Myc-KHK-A_L83A (human)
  binding: no binding

## SNAIL, endogenous (from UniProt O95863 1-264)
[1]
  binding: binds
[2]
  binding: binds

B1: FLAG-YWHAH WT expressed in MDA-MB-231 cells (protein, UniProt Q04917 1-246)
chain: T2 sequence (chain, phosphoserine at 25)
[3]
  binding: binds

B2: SLUG, endogenous (protein, UniProt O43623 1-268)
chain: MPRSFLVKKHFNASKKPNYSELDTHTVIISPYLYESYSMPVIPQPEILSSGAYSPITVWTTAAPFHAQLPNGLSPLSGYSSSLGRVSPPPPSDTSSKDHSGSESPISDEEERLQSKLSDPHAIEAEKFQCNLCNKTYSTFSGLAKHKQLHCDAQSRKSFSCKYCDKEYVSLGALKMHIRTHTLPCVCKICGKAFSRPWLLQGHIRTHTGEKPFSCPHCNRAFADRSNLRAHLQTHSDVKKYQCKNCSKTFSRMSLLHKHEESGCCVAH
[4]
  binding: binds
[5]
  binding: no binding
[1]
  binding: binds

B3: tyrosine 3-monooxygenase/tryptophan 5-monooxygenase activation protein Eta (YWHAH), endogenous (protein, UniProt Q04917 1-246)
chain: T2 sequence (chain, phosphoserine at 25)
[6]
  binding: no binding
[7]
  binding: binds

B4: FLAG-YWHAH D21A expressed in MDA-MB-231 cells (protein, UniProt Q04917 1-246)
chain: T2 sequence (chain, phosphoserine at 25) with D21A
[3]
  binding: no binding

B5: Purified FLAG-YWHAH D21A (protein, UniProt Q04917 1-246)
chain: T2 sequence (chain, phosphoserine at 25) with D21A
[8]
  binding: no binding
